Results from PubChem BioAssay AID504332 (National Center for Advancing Translational Sciences (NCATS), 2011).
“And” between values parts separate entries of the source, which are not always exact repeats. Identical values can stand only once. Out of some 350,000 compounds screened, about 31,000 (8.9%) were called active. The inconclusive results got no clear call from the source; some entries with a clear call stand among them for comparison. Calls follow the shape of the dose curve; as a rule, active = well fitted inhibition curve with a large enough effect; inconclusive = small, poorly fitted or top-dose-only effect; inactive = no such curve, though single readings can be large or run the other way. Where the call is inconclusive, the potency comes from a doubtful curve fit. The source holds several records for some structures; these can differ, active in one and inactive in another.

Each compound was assayed against Histone-lysine N-methyltransferase EHMT2 (Homo sapiens) (UniProt Q96KQ7) (assay: qHTS Assay for Inhibitors of Histone Lysine Methyltransferase G9a). Settings: G9a H3K9 monomethylation, AlphaScreen, 2 h; activity, negative = inhibition: at 59 µM (top of the series) unless noted.
Sequence of UniProt Q96KQ7 (Q96KQ7 whole entry, looked up): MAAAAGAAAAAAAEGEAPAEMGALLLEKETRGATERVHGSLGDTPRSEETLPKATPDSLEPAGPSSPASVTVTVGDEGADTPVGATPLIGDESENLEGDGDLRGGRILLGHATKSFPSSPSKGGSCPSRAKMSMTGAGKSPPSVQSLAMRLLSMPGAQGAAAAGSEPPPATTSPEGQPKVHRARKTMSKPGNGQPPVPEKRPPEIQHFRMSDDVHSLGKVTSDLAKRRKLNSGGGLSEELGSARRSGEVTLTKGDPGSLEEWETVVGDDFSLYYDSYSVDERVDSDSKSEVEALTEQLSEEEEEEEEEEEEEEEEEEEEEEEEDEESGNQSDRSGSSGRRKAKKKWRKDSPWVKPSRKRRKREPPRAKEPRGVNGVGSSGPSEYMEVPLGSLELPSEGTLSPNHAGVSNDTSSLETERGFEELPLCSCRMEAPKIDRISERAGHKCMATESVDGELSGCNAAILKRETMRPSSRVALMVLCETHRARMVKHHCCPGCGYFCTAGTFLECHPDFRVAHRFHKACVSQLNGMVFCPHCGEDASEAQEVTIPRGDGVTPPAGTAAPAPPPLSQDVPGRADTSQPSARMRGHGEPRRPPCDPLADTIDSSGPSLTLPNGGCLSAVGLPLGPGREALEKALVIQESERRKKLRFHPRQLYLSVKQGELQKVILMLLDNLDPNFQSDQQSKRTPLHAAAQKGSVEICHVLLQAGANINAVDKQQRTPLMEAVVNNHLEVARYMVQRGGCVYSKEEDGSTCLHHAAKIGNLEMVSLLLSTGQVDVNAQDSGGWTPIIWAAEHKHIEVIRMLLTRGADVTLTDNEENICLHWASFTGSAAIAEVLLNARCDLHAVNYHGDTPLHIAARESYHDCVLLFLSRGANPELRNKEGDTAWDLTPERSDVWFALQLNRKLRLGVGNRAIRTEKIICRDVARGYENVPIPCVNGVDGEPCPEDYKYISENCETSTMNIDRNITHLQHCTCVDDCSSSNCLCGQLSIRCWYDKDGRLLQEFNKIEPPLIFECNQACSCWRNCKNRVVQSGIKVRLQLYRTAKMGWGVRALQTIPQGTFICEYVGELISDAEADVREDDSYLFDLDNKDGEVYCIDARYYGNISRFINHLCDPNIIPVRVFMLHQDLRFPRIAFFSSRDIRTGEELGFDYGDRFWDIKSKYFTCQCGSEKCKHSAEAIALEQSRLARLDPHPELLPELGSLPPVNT
In short: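 Quantitative HTS format: methyltransferase activity on a biotin-tagged H3K9 peptide is measured by AlphaScreen, using a rabbit anti-monomethyl-H3K9 antibody with streptavidin donor and anti-IgG acceptor beads. Final levels are 20 nM enzyme, 500 nM peptide, 20 uM SAM; 2 h RT.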
% is scaled to controls: 0 for no effect and ±100 for the full control effect; potency is read from the fitted curve at half-maximal effect; tags tell the direction and shape of the fitted curve.
Also: nearly all actives have a fitted effect of over 75% in size.

SMILES | Potency | activity, negative = inhibition
CC(C)OC(=O)c1c(N)n(Cc2ccco2)c2nc3ccccc3nc12 | active: 3.55 µM | 
Cc1cccc(CN2CCN(c3ccc(Cl)cc3)CC2)c1 | active: 31.6 µM | 
COc1ccc2o/c(=N\O)c(C(=O)Nc3ccc(C)cc3)cc2c1 | active: 50.1 µM | 
CCOC(=O)c1cccc(N)c1 | inconclusive: 17.8 µM [inhibitor, partial curve, poor fit] | 
Fc1ccccc1CNCCc1ccc2c(c1)OCO2 | active: 39.8 µM | 
O=C(c1cc2ccccn2n1)N1CCN(Cc2ccccc2)CC1 | inconclusive: 89.1 µM [inhibitor, single point] | 
Cc1ccnc(-n2c(-c3ccccc3)nc3ccccc3c2=O)c1 | inactive | 
Cc1cccc(NC(=O)COC(=O)c2cc(C)n(C3CC3)c2C)c1 | inconclusive: 3.55 µM [inhibitor, partial curve, poor fit] | 
Cc1ccc2c(c1)C1CN(C)CCC1N2C(=O)c1ccccc1NS(=O)(=O)c1ccc(F)cc1C (stereo not drawn) | inconclusive: 100 µM [inhibitor, single point] | 
O=C(c1ccccc1F)N1CCN(Cc2nc3sc4c(c3c(=O)[nH]2)CCCC4)CC1 | inconclusive: 89.1 µM [inhibitor, single point] | 
CN1CC[C@@]2(C)c3cc(O)ccc3N(C)C12 (stereo partly drawn) | active: 31.6 µM and active: 9.47 µM | 
COc1cc(CC2C(=O)N(C)C(=O)N(C)C2=O)ccc1OCc1ccccc1 | inactive | 
Ic1c(C2=CCCCC2)[se]c2ccccc12 | inactive | 
CC(C)CCCC1(C)C=Cc2c(O)c3c(c(CCC(C)C)c2O1)OC12C(CC4CC1C(C)(C)OC2(CCC(C)C(=O)O)C4O)C3=O (stereo not drawn) |  | inconclusive: -59% [inhibitor] [at 2.33 µM]
O=c1[nH]c(=O)n(Cc2ccccc2)c(O)c1/C=N/NCCO | active: 50.1 µM | 
Cc1cc(C=C2C(=O)N(C)C(=S)N(C)C2=O)c(C)n1-c1cccnc1 | active: 8.91 µM | 
Cc1ccc(-n2ncc(C(=O)N3CCN(c4ccc(Cl)cc4)CC3)c2C2CCN(C(=O)OC(C)(C)C)CC2)c(C)c1 | inconclusive: 7.94 µM [inhibitor, partial curve, poor fit] | 
COc1cccc(CN2CCN(C(=O)COc3ccc4ccccc4c3)CC2)c1 | inconclusive: 35.5 µM [inhibitor, single point] | 
O=C(O)c1ccc2[nH]cc(CCCCN3CC=C(c4ccccc4)CC3)c2c1 |  | inactive: -38.6% [at 12.7 µM]
CCC(C)n1c(O)c(/C=N/N2CCOCC2)c(=O)[nH]c1=S (stereo not drawn) | inconclusive: 39.8 µM [inhibitor, single point] | 
C=CCN1C(=O)/C(=C/c2cc(C)n(-c3ccccn3)c2C)C(=O)NC1=S | inconclusive: 39.8 µM [inhibitor, single point] | 
CCC(=O)c1c(O)n(C2CCCCCC2)c(=O)[nH]c1=O | inconclusive: 35.5 µM [inhibitor, single point] | 
O=C1NC(=O)N(c2ccc3c(c2)OCO3)C(=O)/C1=C/c1cccs1 | active: 11.2 µM | 

SMILES | Potency | activity, negative = inhibition
N#Cc1c(/N=C/C2C(=O)NC(=S)NC2=O)sc2c1CCCC2 | active: 28.2 µM | 
CC(C)N(Cc1ccccc1)C(=O)CCS(=O)(=O)c1ccc2c(c1)oc(=O)n2C | active: 70.8 µM | 
Cc1ccc(-c2nc(CS(=O)CC(=O)NC3CCCC(C)C3C)c(C)o2)cc1 (stereo not drawn) | active: 35.5 µM | 
CCOC(=O)c1c(-n2c(C)cc(/C=C3\C(=O)NC(=O)N(C)C3=O)c2C)sc2c1CCCC2 | inconclusive: 79.4 µM [inhibitor, single point] | 
COc1ccc(OCC(=O)N2CCN(Cc3ccc(SC)cc3)CC2)cc1 | active: 2.24 µM | 
Cc1ccc(C(=O)O)cc1N=Nc1c(O)[nH]c(=O)[nH]c1=O | inconclusive: 70.8 µM [inhibitor, partial curve, poor fit] | 
O=C(Nc1ccc(Oc2ccc(Cl)cc2)c(Cl)c1)c1cc(I)cc(I)c1O | inconclusive: 1.41 µM [inhibitor, partial curve, poor fit] | 
COc1ccc(NC(=O)CSc2oc(-c3cccs3)nc2S(=O)(=O)c2ccccc2)c(OC)c1 | inconclusive: 12.6 µM [inhibitor, partial curve, poor fit] | 
COC(=O)CCCCCCCCC(O)C[N+]1(C)CCOCC1 (stereo not drawn) | inconclusive: 56.2 µM [inhibitor, partial curve, poor fit] | 
CCCn1c(C(C)C)n[nH]c1=S | active: 35.5 µM | 
CN(C)c1ccc(CN2CC=C(c3ccc(F)cc3)CC2)cc1 | inconclusive: 25.1 µM [inhibitor, partial curve, poor fit] | 
Cc1ccc2c(c1)CC1(CN2C)C(=O)NC(=O)N(c2ccccc2C)C1=O (stereo not drawn) | active: 10 µM | 
O=c1[nH]c(=S)n(-c2ccccc2)c(O)c1C=NCCN1CCNCC1 | inconclusive: 89.1 µM [inhibitor, single point] | 
CCOC(=O)C(O)(c1ccc(N(CC)S(=O)(=O)c2ccc(C)cc2)cc1)C(F)(F)F (stereo not drawn) | inconclusive: 11.2 µM [inhibitor, partial curve, poor fit] | 
NC(N)=NN=C(/C=C/c1ccc([N+](=O)[O-])o1)/C=C/c1ccc([N+](=O)[O-])o1 | inconclusive: 2.82 µM [inhibitor, partial curve, poor fit] | 
C=CCn1c(O)c(C=Nc2ccc(N(CC)CC)cc2)c(=O)[nH]c1=O |  | inconclusive: -64.2% [inhibitor]
COc1cc(N2CCOCC2)ccc1/C=C1\C(=O)NC(=O)N(C2CCCCC2)C1=O | inconclusive: 0.708 µM [inhibitor, full curve, poor fit] | 
CN(C)CC/C=C1\c2ccccc2Sc2ccc(Cl)cc21 | inconclusive: 11.2 µM [inhibitor, partial curve] and inconclusive: 79.4 µM [inhibitor, single point] and inconclusive: 7.94 µM [inhibitor, partial curve, poor fit] | 
O=[N+]([O-])c1cc(I)c(O)c(I)c1 | inactive | 
COc1ccc(C=C2C(=O)N(C)C(=O)N(C)C2=O)cc1COc1ccc(NC(C)=O)cc1 | active: 44.7 µM | 
Cc1c(O)c(=O)ccn1C | active: 1.58 µM | 
O=S(=O)(O)c1cc(O)ccc1O | active: 10 µM | 
CC1(C)OC(c2ccccc2)=C/C(=C/C=C2C(=O)NC(=S)NC2=O)O1 | active: 10 µM | 

SMILES | Potency | activity, negative = inhibition
O=C1NC(=O)N(CCc2ccc(F)cc2)C(=O)/C1=C/c1ccco1 | active: 10 µM | 
COc1ccc(OCC#CCN2CCC(C)CC2)cc1 | active: 8.91 µM | 
NC(Cc1cc(O)c(O)cc1O)C(=O)O (stereo not drawn) | active: 1.41 µM and active: 1.26 µM and active: 447 nM | 
CC(Cc1ccccc1)[n+]1cc(/N=C(\[O-])N(C)C)on1 (stereo not drawn) | inconclusive: 2.82 µM [inhibitor, partial curve, poor fit] | 
CC(=O)O[C@]1(c2ccccc2)CCN(C)[C@H]2CCCC[C@@H]21 | inconclusive: 28.2 µM [inhibitor, single point] | 
Cn1ncnc2c(=O)n(C)c(=O)nc1-2 | active: 12.6 µM | 
O=c1c2ccccc2nc(-c2ccccc2)n1-c1ccccc1 | inactive | 
CC(N)Cc1c[nH]c2ccc(O)cc12 (stereo not drawn) | active: 7.94 µM | 
CC1(C)C2([N+](=O)[O-])CNCC1([N+](=O)[O-])CNC2 | inconclusive: 39.8 µM [inhibitor, single point] | 
CC(C)(C)OC(=O)N1CC(O)CC1C(=O)OCC(=O)c1ccc(-c2ccccc2)cc1 (stereo not drawn) | inconclusive: 39.8 µM [inhibitor, full curve] | 
N#CC1=C(N)Oc2c(c(=O)oc3ccccc23)C1c1cccnc1 (stereo not drawn) | inconclusive: 0.794 µM [inhibitor, full curve, poor fit] | 
CCCCn1c(-c2nn(C)cc2Cl)n[nH]c1=S | active: 12.6 µM | 
CN1C[C@H](CO)C=C2c3cccc4[nH]cc(c34)C[C@H]21 |  | inconclusive: -52.1% [inhibitor]
CCc1nc(SC)ncc1C(=O)Nc1ccc(Cl)cc1C(=O)c1ccccc1 | inactive | 
CCOc1ccc(NCc2cccn2-c2nnc(N3CCC(C(=O)NCC(C)c4ccccc4)CC3)s2)cc1 (stereo not drawn) | inconclusive: 11.2 µM [inhibitor, partial curve, poor fit] | 
CCOC(=O)C(NC(=O)C(Cc1ccc(N(CCCl)CCCl)cc1)NC(C)=O)C(C)C (stereo not drawn) | inconclusive: 44.7 µM [inhibitor, partial curve, poor fit] | 
COc1cccc(C(=O)c2c(N)c(-c3nc(-c4ccccc4)cs3)c3ccccn23)c1 | inactive | 
COc1ccccc1CN1CCN(Cc2ccc(Cl)cc2)CC1 | active: 3.55 µM | 
C=C1C(=O)O[C@H]2[C@H]1[C@H](OC(=O)CC(=O)O[C@@H]1C[C@@H](C)[C@@H]3C=CC(=O)[C@@]3(C)[C@H]3OC(=O)C(=C)[C@H]13)C[C@@H](C)[C@H]1C=CC(=O)[C@]12C | inconclusive: 10 µM [inhibitor, single point] | 
N#CCCn1cc(C=C2C(=O)NC(=O)NC2=O)c(-c2ccccc2)n1 | inconclusive: 89.1 µM [inhibitor, partial curve, poor fit] | 
C/C(=N\N(C)c1ccccc1)c1c(O)[nH]c(=O)[nH]c1=O | active: 50.1 µM | 
CC1=C(O)C(=O)C=C2C1=CC=C1[C@]2(C)CC[C@@]2(C)C3C[C@](C)(C(=O)O)CC[C@@]3(C)CC[C@@]12C (stereo partly drawn) |  | inconclusive: -84.4% [inhibitor] [at 2.33 µM]
